Assay results taken from PubChem BioAssay AID504339 (National Center for Advancing Translational Sciences (NCATS), 2011).
The whole screen tested about 390,000 compounds, of which about 17,000 (4.4%) were called active. The inconclusive results got no clear call from the source; some entries with a clear call stand among them for comparison. Calls come from the whole dose curve; as a rule, active = well fitted inhibition curve with a large enough effect; inconclusive = small, poorly fitted or top-dose-only effect; inactive = no such curve, though single readings can be large or run the other way. Potencies beside an inconclusive call are fits to weak or partial responses and may not hold up.

What follows are molecules tested against Lysine-specific demethylase 4A (Homo sapiens) (UniProt O75164) (assay: qHTS Assay for Inhibitors of JMJD2A-Tudor Domain). Settings: AlphaScreen JMJD2A-Tudor / H3K4me3 peptide binding; activity change, negative = inhibition: at 114 µM (top of the series).
% is set by controls: 0 for no effect and ±100 for the full control effect; potency is the fitted concentration of half-maximal effect; tags give direction and shape of the fitted curve.
Note: nearly all actives have a fitted effect of over 50% in size.

UniProt O75164, sequence (O75164 whole entry, looked up, the tested form may be a part): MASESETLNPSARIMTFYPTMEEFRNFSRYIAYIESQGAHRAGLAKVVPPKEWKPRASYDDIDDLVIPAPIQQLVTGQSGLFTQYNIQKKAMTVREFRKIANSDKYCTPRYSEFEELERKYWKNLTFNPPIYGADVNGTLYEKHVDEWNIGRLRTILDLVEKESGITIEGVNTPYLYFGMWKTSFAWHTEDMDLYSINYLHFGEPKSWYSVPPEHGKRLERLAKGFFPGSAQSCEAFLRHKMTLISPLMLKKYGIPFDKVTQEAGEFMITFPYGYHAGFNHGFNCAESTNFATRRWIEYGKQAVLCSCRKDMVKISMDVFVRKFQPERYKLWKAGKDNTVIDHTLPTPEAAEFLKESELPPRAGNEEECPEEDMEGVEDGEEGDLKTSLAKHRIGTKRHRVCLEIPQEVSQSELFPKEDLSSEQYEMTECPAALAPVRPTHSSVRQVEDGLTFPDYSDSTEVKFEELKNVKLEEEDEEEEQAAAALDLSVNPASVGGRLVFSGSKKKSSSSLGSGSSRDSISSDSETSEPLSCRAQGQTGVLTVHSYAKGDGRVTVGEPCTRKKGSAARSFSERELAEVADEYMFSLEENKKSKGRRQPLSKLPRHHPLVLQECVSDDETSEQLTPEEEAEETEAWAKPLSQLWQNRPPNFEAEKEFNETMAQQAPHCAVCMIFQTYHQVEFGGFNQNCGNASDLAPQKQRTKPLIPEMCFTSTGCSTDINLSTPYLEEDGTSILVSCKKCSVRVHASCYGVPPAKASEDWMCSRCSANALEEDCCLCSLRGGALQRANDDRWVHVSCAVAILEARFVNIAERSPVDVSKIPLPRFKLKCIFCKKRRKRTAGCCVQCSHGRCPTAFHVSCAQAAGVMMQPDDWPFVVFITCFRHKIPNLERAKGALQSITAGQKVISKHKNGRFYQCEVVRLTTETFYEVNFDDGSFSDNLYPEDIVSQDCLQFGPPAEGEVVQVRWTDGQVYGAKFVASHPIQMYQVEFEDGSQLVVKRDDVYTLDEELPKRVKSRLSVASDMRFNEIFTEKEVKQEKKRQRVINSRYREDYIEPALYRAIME

Row | Structure (SMILES) | Potency | activity change, negative = inhibition
1 | CSc1ccc2c(c1)C(N1CCN(C)CC1)Cc1ccc(F)cc1S2 (centres undefined) | inconclusive: 56.2 µM [inhibitor, partial curve] | 
2 | O=C(c1ccc(N2CCCCC2)c([N+](=O)[O-])c1)N1CCOCC1 | inactive | 
3 | Cc1ccc(C)c(NC(=O)CCC(=O)N/N=C/c2cccnc2)c1 | inactive | 
4 | COc1ccc(N2CCN(CC(=O)c3ccc(Cl)cc3)CC2)cc1 | inconclusive: 63.1 µM [inhibitor, partial curve, poor fit] | 
5 | Cc1ccc(S(=O)(=O)c2nc(Nc3ccccc3)sc2Cl)cc1 | inconclusive: 44.7 µM [inhibitor, single point] | 
6 | Cc1ccccc1C(=O)NC(=S)Nc1ccc(N2CCOCC2)cc1 | inconclusive: 44.7 µM [inhibitor, full curve] | 
7 | Cc1cc(C)c2c(-n3cccc3)c(C(=O)NNS(=O)(=O)c3ccc(Br)cc3)sc2n1 | active: 56.2 µM | 
8 | C/C(=N/NC(=O)c1ccc(C)s1)c1cccnc1 | active: 35.5 µM | 
9 | O=C1C(NS(=O)(=O)c2cccs2)=C(N2CCN(c3cccc(Cl)c3)CC2)C(=O)c2ccccc21 | active: 7.08 µM | 
10 | CCC(C)(C)NC(=O)C(c1cccc(OC)c1)N(C(=O)CNC(=O)c1cccs1)c1cccnc1 (centres undefined) | inactive | 
11 | O=C(COc1ccc(Br)cc1Cl)Nc1ncn[nH]1 | inactive | 
12 | COc1ccc(-n2c(C)cc(=O)[nH]c2=O)cc1 | inactive | 
13 | CCOc1cc(N2CCOCC2)c(OCC)cc1NC(=O)c1ccc(C)s1 | inconclusive: 56.2 µM [inhibitor, partial curve] | 
14 | CC1=CC(=C(C#N)C#N)C=C(C)N1CCN1CCNCC1 | inconclusive: 89.1 µM [inhibitor, single point] | 
15 | CC1CCCC(NC(=O)COC(=O)COc2ccc(Cl)cc2)C1C (centres undefined) | inactive | 
16 | O=C(NC(Nc1nc2ccc([N+](=O)[O-])cc2s1)(C(F)(F)F)C(F)(F)F)c1ccccc1Cl | inconclusive: 50.1 µM [inhibitor, partial curve] | 
17 | Cc1ccc(-c2nc(Nc3ccc(N4CCOCC4)cc3)c3ccccc3n2)cc1 | active: 39.8 µM | 
18 | Cc1ccc(/C=C2\SC(=S)N(C(Cc3ccccc3)C(=O)O)C2=O)cc1 (centres undefined) | inconclusive: 12.6 µM [inhibitor, full curve, poor fit] | 
19 | O=S(=O)(N/N=C/c1ccccc1F)c1ccccc1 | inconclusive: 12.6 µM [inhibitor, full curve] | 
20 | CCN(CC(=O)NCc1cccs1)C(=O)Cc1ccc(Cl)c(Cl)c1 | inactive | 
21 | O=C(c1ccccc1)c1c(O)nc(-c2ccccc2)n(-c2ccccc2)c1=O | inconclusive: 89.1 µM [inhibitor, single point] | 
22 | Nc1ncnc2oc(-c3ccco3)c(-c3ccco3)c12 | active: 56.2 µM | 
23 | COc1ccc2c(c1)C(=NN)c1cc(OC)ccc1-2 | active: 56.2 µM | 
24 | Cn1c(/C(C#N)=C(\O)c2ccc([N+](=O)[O-])cc2)nc2ccccc21 | inconclusive: 12.6 µM [inhibitor, full curve, poor fit] | 
25 | COc1ccc(OC)c2sc(N3CCN(C(=O)c4ccc5c(c4)CCCC5)CC3)nc12 | inconclusive: 39.8 µM [inhibitor, partial curve] | 

Row | Structure (SMILES) | Potency | activity change, negative = inhibition
26 | COc1ccc(OCCCCc2c(C)n[nH]c2C)cc1 | inconclusive: 89.1 µM [inhibitor, partial curve] | 
27 | C/C(Cn1cnc([N+](=O)[O-])n1)=N\NC(=O)c1ccncc1 | inconclusive: 28.2 µM [inhibitor, single point] | 
28 | CC1CCCC(NC(=O)CN2C(=O)NC(c3ccccc3)(c3ccccc3)C2=O)C1C (centres undefined) | inactive | 
29 | c1ccc(-c2cnc(-c3ccccc3)nn2)cc1 | inactive | 
30 | Cc1sc(NC(=O)c2ccco2)c(C(c2cccnc2)N2CCC(C)CC2)c1C (centres undefined) | inconclusive: 56.2 µM [inhibitor, partial curve] | 
31 | CCNC(=O)c1sc(=S)n(CC)c1N | inactive | 
32 | CC(C)N1C(=O)/C(=C\c2nc3ccccc3c(=O)n2-c2ccccc2)c2ccccc21 | active: 35.5 µM | 
33 | Cc1cc(SCC(=O)c2ccc(O)c(O)c2)nc2ccccc12 |  | inconclusive: -66.7% [inhibitor]
34 | C[N+]1(CC(=O)OCCCc2ccccc2)CCCC1 | inconclusive: 31.6 µM [inhibitor, partial curve] | 
35 | Cc1cc(OCC(O)CN(CCO)CCO)ccc1Cl (centres undefined) | inactive | 
36 | O=C(CCCn1c(SCC(=O)NC2CCCCC2)nc2ccccc2c1=O)NCC1CCCO1 (centres undefined) | inactive | 
37 | CCOC(=O)C1=C(C)OC(N)=C(C#N)C1c1c(C)nn(-c2ccccc2)c1Cl (centres undefined) | inconclusive: 79.4 µM [inhibitor, single point] | 
38 | CCCCS(=O)CC(COC)OC(=O)c1ccccc1 (centres undefined) | inactive | 
39 | NC(CC(=O)NC(c1ccccc1)(c1ccccc1)c1ccccc1)C(=O)O (centres undefined) | inactive | 
40 | COc1ccc(-c2cc3ccc(O)c(CN4CCC(C)CC4)c3oc2=O)cc1 | inconclusive: 56.2 µM [inhibitor, partial curve] | 
41 | CC(C)=CCc1c2c(c3occ(-c4ccc(O)cc4)c(=O)c3c1O)C=CC(C)(C)O2 | inconclusive: 28.2 µM [inhibitor, full curve] | 
42 | CN(C)S(=O)(=O)c1ccc2c(c1)N(CC(=O)NCc1ccc(F)cc1)C(=O)CS2 | inactive | 
43 | COc1cc(/C=N/Nc2nc3ccccc3s2)ccc1OC(=O)c1ccccc1F | inconclusive: 50.1 µM [inhibitor, partial curve] | 
44 | C/C(=N/Nc1ccccc1[N+](=O)[O-])c1ccc([N+](=O)[O-])cc1 | inactive | 
45 | Cc1ccc(S(=O)(=O)Nc2nc(C)cc(NN)n2)cc1 | inconclusive: 28.2 µM [inhibitor, single point] | 
46 | Cc1ccc(NS(=O)(=O)c2ccc(N3CCCC3=O)cc2)cc1C | inconclusive: 100 µM [inhibitor, single point] | 
47 | COc1ccc(Oc2c(C(F)(F)F)oc3c(CN4CCCC(C)C4)c(O)ccc3c2=O)cc1 (centres undefined) | inactive | 
48 | O=C(Nc1ccc(N2CCOCC2)cc1)Nc1ccc2nc(-c3ccco3)c(-c3ccco3)nc2c1 | inconclusive: 10 µM [inhibitor, full curve, poor fit] | 
49 | CCC(C)NS(=O)(=O)c1ccc(S(=O)(=O)N2CC=C(c3ccc(F)cc3)CC2)cc1 (centres undefined) | inconclusive: 25.1 µM [inhibitor, single point] | 
50 | CCCOc1ccc(C(=O)NNC(=S)NC(=O)c2ccccc2)cc1 | inconclusive: 39.8 µM [inhibitor, full curve, poor fit] | 

Row | Structure (SMILES) | Potency | activity change, negative = inhibition
51 | COc1ccc(Cc2n[nH]c(=S)n(N)c2=O)cc1 | inactive | 
52 | O=C1Nc2ccc(S(=O)(=O)NCc3ccccn3)c3cccc1c23 | inconclusive: 1.12 µM [inhibitor, full curve, poor fit] | 
53 | Cc1ccc(NC(=S)N2CCC(c3nc4ccccc4s3)CC2)cc1 | inconclusive: 50.1 µM [inhibitor, partial curve] | 
54 | O=C(N/N=C/C(Cl)=C/c1ccc([N+](=O)[O-])cc1)C(=O)Nc1ccc(C(=O)O)cc1 |  | inactive: -33.8% [at 11.4 µM]
55 | CSc1nc2[nH]c(=O)n(O)c(=O)c2n1Cc1ccccc1 | active: 3.16 µM | 
56 | O=C(CSc1nccn1-c1cccc(Cl)c1)Nc1ccc2c(c1)OCCO2 | inconclusive: 56.2 µM [inhibitor, partial curve] | 
57 | O=C(COC(=O)COc1ccc(Br)cc1)NCc1ccc2c(c1)OCO2 | inconclusive: 35.5 µM [inhibitor, single point] | 
58 | O=S(=O)(c1ccc2nc(Nc3ccc(Br)cc3F)ccc2c1)N1CCCC1 | inactive | 
59 | CCCN1CCC(N2CCN(c3ccc([N+](=O)[O-])cc3)CC2)CC1 | active: 20 µM | 
60 | NS(=O)(=O)c1ccc(CCNC(=O)CCc2ccccc2)cc1 | inactive | 
61 | NC(=O)C1CCN(C2=C(NS(=O)(=O)c3ccccc3)C(=O)c3ccccc3C2=O)CC1 | inconclusive: 25.1 µM [inhibitor, partial curve] | 
62 | Cc1ccc(NC(=O)C2=C(O)c3sccc3N(C)S2(=O)=O)cc1 | inconclusive: 89.1 µM [inhibitor, partial curve] | 
63 | Cc1cn(CC(=O)NCCc2ccccn2)c(=O)[nH]c1=O | inconclusive: 79.4 µM [inhibitor, partial curve] | 
64 | O=C(O)CCCC(=O)Nc1ccccc1SCCS(=O)(=O)c1ccc(Cl)cc1 | inactive | 
65 | CC(=O)Nc1ccc(S(=O)(=O)NC2=C(N3CCN(c4ccc(F)cc4)CC3)C(=O)c3ccccc3C2=O)cc1 | active: 22.4 µM | 
66 | O=C(NCc1ccccn1)C1CCN(Cc2cccc(OCc3ccccc3)c2)CC1 | active: 3.55 µM | 
67 | COC(=O)CCN1CCC2CC1c1cc(Cl)ccc12 (centres undefined) | inactive | 
68 | COc1ccc(OC)c(CCNC(=O)CSc2ccsc2[N+](=O)[O-])c1 | active: 44.7 µM | 
69 | CCN1CCN(CCCCOc2ccccc2F)CC1 | active: 0.794 µM | 
70 | O=c1[nH]cnc2c1[nH]c(=S)n2C1O[C@@H](CO)[C@H](O)[C@@H]1O (some centres undefined) | inconclusive: 39.8 µM [inhibitor, single point] | 
71 | COc1ccc(-c2c(C#Cc3ccc(N(C)C)cc3)c3ccccc3n2C)cc1 | active: 56.2 µM | 
72 | CN(C)S(=O)(=O)n1cc(/C=C(\NC(=O)c2ccccc2Cl)C(=O)N2CCCC2)c2ccccc21 | inactive | 
73 | CN(Cc1ccccn1)C(=O)CC1C(=O)NCCN1Cc1ccc(F)cc1Cl (centres undefined) | inconclusive: 31.6 µM [inhibitor, full curve, poor fit] | 
74 | C[C@H](CO)N1C[C@H](C)[C@@H](CN(C)Cc2ccc(-c3ccccc3)cc2)Oc2ccc(NC(=O)Cn3cnnn3)cc2C1=O | inconclusive: 50.1 µM [inhibitor, partial curve] | 
